# Source: PubChem BioAssay (Tox21)
# “And” between values parts separate entries of the source, which are not always exact repeats. Equal values may be shown once. This list was built around the results that the source calls inconclusive (neither active nor inactive); the mix of calls is not that of the screen. For part of these data: Potencies beside an inconclusive call are fits to weak or partial responses and may not hold up. The source made the active and inactive calls. Unless noted, calls follow the shape of the dose curve; as a rule, active = well fitted curve in the direction sought with a large enough effect in the repeat runs; inconclusive = weak or mixed curves; inactive = no such curve, though single readings can be large; an effect the other way counts as inactive or inconclusive.
# Columns and labels:
# [1] = molecular target: Peroxisome proliferator-activated receptor gamma (Homo sapiens) (UniProt P37231); test: qHTS assay to identify small molecule antagonists of the peroxisome proliferator-activated receptor gamma (PPARg) signaling pathway (AID 743191; calls by dose curve; also: % is scaled to controls: 0 for no effect and ±100 for the full control effect; nearly all actives have a fitted effect of over 30% in size); details: HEK293H PPARg-UAS-bla, beta-lactamase ratio, antagonist, 17 h
# Summary of the method: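 Beta-lactamase reporter under UAS control in HEK293H PPARg-bla cells; compound treatment 17 h at 37C. Read-out: fluorescence intensity after 1 h room-temperature incubation with LiveBLAzer B/G FRET substrate.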
# [2] = qHTS assay to identify small molecule agonists of the farnesoid-X-receptor (FXR) signaling pathway - cell viability counter screen (AID 743218); details: FXR-bla HEK293T viability, CellTiter-Glo luminescence, 16 h; viability change, negative = cytotoxic: at 62.6 µM (top of the series) unless noted; also: nearly all actives have a fitted effect of over 45% in size; also: potency is read from the fitted curve at half-maximal effect
# Summary of the method: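 Cells were seeded, left 5 h at 37 C and 5% CO2, then dosed with compound in DMSO for 16 h. After the beta-lactamase FRET read, CellTiter-Glo was added and luminescence measured 30 min later.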
# [3] = qHTS assay to identify small molecule antagonists of the vitamin D receptor (VDR) signaling pathway - cell viability counter screen (AID 743225); details: VDR-bla HEK293T viability, CellTiter-Glo luminescence, 16 h; viability change, negative = cytotoxic: at 61 µM (top of the series) unless noted; also: nearly all actives have a fitted effect of over 50% in size; also: potency is read from the fitted curve at half-maximal effect; as to viability change, negative = cytotoxic: % is scaled to controls: 0 for no effect and ±100 for the full control effect
# Summary of the method: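 Compounds were pinned onto VDR-bla HEK 293T cells together with 1-alpha,25-dihydroxyvitamin D3 at 3 nM final. After 16 h at 37C and 5% CO2 plus the reporter readout, cell viability was measured by CellTiter-Glo luminescence (30 min, room temperature).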
# [4] = qHTS assay to identify small molecule agonists of the endoplasmic reticulum stress response signaling pathway (AID 1159516; active = well fitted activation curve with a large enough effect in the signal ratio in the repeat runs, not every such curve was filed as active; inconclusive = weak or mixed curves, or effect the other way; the % refers to the signal ratio; also: potency is read from the fitted curve at half-maximal effect); details: ESRE-bla HeLa, ER stress beta-lactamase reporter, 5 h
# Summary of the method: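 Cells are seeded at 1,500 per well and incubated overnight. Compounds in DMSO are added for 5 hr at 37 C, then beta-lactamase FRET substrate for 2 hr at room temperature, and fluorescence at 460 and 530 nm is measured.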
# [5] = qHTS assay for small molecule activators of the heat shock response signaling pathway (AID 743210; active = well fitted activation curve with a large enough effect in the signal ratio in the repeat runs, with a control signal flat, not every such curve was filed as active; inconclusive = weak or mixed curves; the % refers to the signal ratio; also: potency is read from the fitted curve at half-maximal effect); details: HeLa HSE-bla reporter, beta-lactamase ratio, 5 h; activation: at 62.6 µM (top of the series)
# Summary of the method: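 Fluorescence from a cleaved B/G FRET substrate (2.5 h, room temp) reports HSE-driven beta-lactamase in HeLa cells treated 5 h at 37 C with DMSO-dissolved compounds.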
# [6] = qHTS assay to identify small molecule antagonists of the peroxisome proliferator-activated receptor delta (PPARd) signaling pathway - cell viability counter screen (AID 743213); details: PPARd-bla HEK293H viability, CellTiter-Glo luminescence, 17 h; viability change, negative = cytotoxic: at 62 µM (top of the series) unless noted; also: nearly all actives have a fitted effect of over 50% in size; also: potency is read from the fitted curve at half-maximal effect
# Summary of the method: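 Agonist-stimulated (L165041, 300 nM final) HEK293H PPARd UAS-bla cells are exposed to compounds for 17 h at 37 C, and ATP-based luminescence (CellTiter-Glo) from the same wells reports cytotoxicity.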
# [7] = qHTS assay to identify small molecule agonists of the NFkB signaling pathway - cell viability counter screen (AID 1159515; calls by dose curve; also: nearly all actives have a fitted effect of over 55% in size; also: potency is read from the fitted curve at half-maximal effect); details: NFkB-bla ME-180 viability, CellTiter-Glo luminescence, 5 h; series mostly up to 61 µM
# Summary of the method: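 Cells are seeded (2,000 NFkB-bla ME-180 per well), rested overnight, and dosed with DMSO-dissolved compounds for 5 hr at 37 C. Viability is then read by CellTiter-Glo luminescence after 30 min at room temperature.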
# [8] = qHTS assay to identify small molecule agonists of the peroxisome proliferator-activated receptor delta (PPARd) signaling pathway - cell viability counter screen (AID 743211); details: PPARd-bla HEK293H viability, CellTiter-Glo luminescence, 17 h; activity change, negative = cytotoxicity: at 62.6 µM (top of the series) unless noted; also: % is scaled to controls: 0 for no effect and ±100 for the full control effect; nearly all actives have a fitted effect of over 55% in size
# Summary of the method: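 In the same wells used for beta-lactamase reporter measurement, cytotoxicity is scored by CellTiter-Glo. HEK293H PPARd-bla cells receive compound for 17 h at 37C following a 5 h settling period.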
# [9] = molecular target: Peroxisome proliferator-activated receptor delta (Homo sapiens) (UniProt Q03181); test: qHTS assay to identify small molecule antagonists of the peroxisome proliferator-activated receptor delta (PPARd) signaling pathway (AID 743215; active = well fitted inhibition curve with a large enough effect in the signal ratio in the repeat runs, not every such curve was filed as active; inconclusive = weak or mixed curves, or effect the other way; inactive = no such curve, though single readings can be large or run the other way; the % refers to the signal ratio; also: potency is read from the fitted curve at half-maximal effect); details: HEK293H PPARd-UAS-bla, beta-lactamase FRET ratio, antagonist, 17 h; ratio activity, negative = inhibition: at 62 µM (top of the series) unless noted
# Summary of the method: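 Cells: HEK293H with a UAS-driven beta-lactamase reporter responsive to PPARd. Compounds were co-added with L165041 (300 nM, final) and incubated 17 h at 37 C before a 2 h room-temperature FRET substrate step and fluorescence reading.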
# [10] = qHTS assay for small molecule agonists of the antioxidant response element (ARE) signaling pathway (AID 743202; active = well fitted activation curve with a large enough effect in the signal ratio in the repeat runs, not every such curve was filed as active; inconclusive = weak or mixed curves, or effect the other way; inactive = no such curve, though single readings can be large or run the other way; the % refers to the signal ratio; also: % is scaled to controls: 0 for no effect and ±100 for the full control effect); details: HepG2 ARE-bla reporter, beta-lactamase FRET, 16 h
# Summary of the method: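 Beta-lactamase reporter activity, read as fluorescence intensity, reflects ARE/Nrf2 pathway induction in HepG2 cells after 16 h compound exposure at 37 C; substrate loading was 2 h at room temperature.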
# [11] = molecular target: Bile acid receptor (Homo sapiens) (UniProt Q96RI1); test: qHTS assay to identify small molecule antagonists of the farnesoid-X-receptor (FXR) signaling pathway (AID 743217; active = well fitted inhibition curve with a large enough effect in the signal ratio in the repeat runs, not every such curve was filed as active; inconclusive = weak or mixed curves, or effect the other way; inactive = no such curve, though single readings can be large or run the other way; the % refers to the signal ratio; also: % is scaled to controls: 0 for no effect and ±100 for the full control effect); details: HEK293T FXR-UAS-bla, beta-lactamase ratio, CDCA-stimulated, 16 h; activity change, negative = inhibition: at 62.6 µM (top of the series) unless noted
# Summary of the method: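 Cells carrying a UAS-driven beta-lactamase reporter (GeneBLAzer FXR-UAS-bla HEK 293T) were plated and rested 5 h at 37 °C. Compounds in DMSO were added alongside chenodeoxycholic acid agonist at 50 uM final and left 16 h at 37 °C before FRET substrate readout.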
# [12] = molecular target: Bile acid receptor (Homo sapiens) (UniProt Q96RI1); test: qHTS assay to identify small molecule agonists of the farnesoid-X-receptor (FXR) signaling pathway (AID 743220; active = well fitted activation curve with a large enough effect in the signal ratio in the repeat runs, not every such curve was filed as active; inconclusive = weak or mixed curves, or effect the other way; the % refers to the signal ratio; also: potency is read from the fitted curve at half-maximal effect); details: HEK293T FXR-UAS-bla, beta-lactamase FRET ratio, 16 h; activation: at 62.6 µM (top of the series) unless noted
# Summary of the method: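 FXR-UAS-bla HEK 293T cells carrying a UAS-driven beta-lactamase reporter were plated for 5 h at 37C/5% CO2, then exposed to DMSO-dissolved Tox21 10K compounds for 16 h at 37C. A LiveBLAzer B/G FRET substrate was loaded for 2 h at room temperature before fluorescence reading.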
# [13] = molecular target: Vitamin D3 receptor (Homo sapiens) (UniProt P11473); test: qHTS assay to identify small molecule agonists of the vitamin D receptor (VDR) signaling pathway (AID 743222; calls by dose curve; also: potency is read from the fitted curve at half-maximal effect); details: HEK293T VDR-UAS-bla, beta-lactamase FRET ratio, 16 h; activation: at 63.5 µM (top of the series) unless noted
# Summary of the method: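 Cells carrying a VDR-driven beta-lactamase reporter are seeded at 2,000 per well and rested 4 h. Compounds in DMSO are added for 16 h at 37C, and FRET substrate fluorescence is measured after 2 h at room temperature.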
# [14] = qHTS assay to identify small molecule agonists of the vitamin D receptor (VDR) signaling pathway - cell viability counter screen (AID 743224); details: VDR-bla HEK293T viability, CellTiter-Glo luminescence, 16 h; series mostly up to 62.6 µM; also: % is scaled to controls: 0 for no effect and ±100 for the full control effect; nearly all actives have a fitted effect of over 50% in size
# Summary of the method: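 Cells: VDR-bla, 2,000/well, settled 4 h. Treatment: compounds in DMSO, 16 h, 37C/5% CO2. Readout: CellTiter-Glo luminescence after 30 min RT.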
# [15] = molecular target: Peroxisome proliferator-activated receptor delta (Homo sapiens) (UniProt Q03181); test: qHTS assay to identify small molecule agonists of the peroxisome proliferator-activated receptor delta (PPARd) signaling pathway (AID 743212; calls by dose curve; also: % is scaled to controls: 0 for no effect and ±100 for the full control effect); details: HEK293H PPARd-UAS-bla, beta-lactamase FRET ratio, 17 h; activation: at 62.6 µM (top of the series) unless noted
# Summary of the method: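 Steps: seed PPARd-bla HEK293H cells; incubate 5 h, 37 C, 5% CO2; add compounds in DMSO; incubate, 37 C; add LiveBLAzer B/G FRET substrate; hold 2 h at room temperature; measure fluorescence.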
# [16] = qHTS assay to identify small molecule antagonists of the peroxisome proliferator-activated receptor gamma (PPARg) signaling pathway - cell viability counter screen (AID 743194); details: PPARg-bla HEK293H viability, CellTiter-Glo luminescence, 17 h; Potency: co-treated with 50 nM rosiglitazone unless noted; activity change, negative = cytotoxicity: at 62.6 µM (top of the series), co-treated with 50 nM rosiglitazone unless noted; also: % is scaled to controls: 0 for no effect and ±100 for the full control effect; nearly all actives have a fitted effect of over 55% in size
# Summary of the method: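 Viability was measured as CellTiter-Glo luminescence in GeneBLAzer PPARg UAS-bla HEK293H cells. These cells had been exposed 17 h at 37 C to compounds together with rosiglitazone at 50 nM final, with the beta-lactamase readout taken in the same wells.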
# [17] = ratio activity, negative = inhibition: at 62.6 µM (top of the series) unless noted
# [18] = activation: at 61 µM (top of the series) unless noted
# Tags tell the direction and shape of the fitted curve or compound fluorescence and quenching.
# UniProt Q03181, sequence (Q03181 whole entry, looked up): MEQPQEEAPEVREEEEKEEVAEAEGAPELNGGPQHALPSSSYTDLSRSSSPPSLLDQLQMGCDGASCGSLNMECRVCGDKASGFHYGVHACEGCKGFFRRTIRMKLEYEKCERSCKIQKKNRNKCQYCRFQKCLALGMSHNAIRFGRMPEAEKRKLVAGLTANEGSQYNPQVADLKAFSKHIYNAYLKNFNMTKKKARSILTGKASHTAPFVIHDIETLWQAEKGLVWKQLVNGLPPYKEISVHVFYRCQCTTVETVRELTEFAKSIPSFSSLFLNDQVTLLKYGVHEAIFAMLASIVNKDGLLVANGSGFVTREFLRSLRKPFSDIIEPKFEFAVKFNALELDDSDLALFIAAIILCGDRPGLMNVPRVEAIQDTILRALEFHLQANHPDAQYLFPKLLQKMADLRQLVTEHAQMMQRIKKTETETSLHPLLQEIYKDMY
# UniProt Q96RI1, sequence (Q96RI1 whole entry, looked up): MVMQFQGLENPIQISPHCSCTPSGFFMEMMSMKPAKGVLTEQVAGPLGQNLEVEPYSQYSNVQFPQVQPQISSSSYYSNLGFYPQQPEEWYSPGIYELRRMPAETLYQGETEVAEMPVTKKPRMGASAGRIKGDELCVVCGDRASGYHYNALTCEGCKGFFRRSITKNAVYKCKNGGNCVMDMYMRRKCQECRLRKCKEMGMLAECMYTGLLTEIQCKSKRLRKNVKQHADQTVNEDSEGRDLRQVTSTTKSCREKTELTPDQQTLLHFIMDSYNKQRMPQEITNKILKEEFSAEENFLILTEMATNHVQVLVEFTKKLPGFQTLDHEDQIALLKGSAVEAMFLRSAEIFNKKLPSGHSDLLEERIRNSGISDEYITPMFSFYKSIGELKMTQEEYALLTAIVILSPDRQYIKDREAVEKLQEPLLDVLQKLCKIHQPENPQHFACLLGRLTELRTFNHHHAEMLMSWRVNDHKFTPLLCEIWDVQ
# UniProt P37231, sequence (P37231 whole entry, looked up): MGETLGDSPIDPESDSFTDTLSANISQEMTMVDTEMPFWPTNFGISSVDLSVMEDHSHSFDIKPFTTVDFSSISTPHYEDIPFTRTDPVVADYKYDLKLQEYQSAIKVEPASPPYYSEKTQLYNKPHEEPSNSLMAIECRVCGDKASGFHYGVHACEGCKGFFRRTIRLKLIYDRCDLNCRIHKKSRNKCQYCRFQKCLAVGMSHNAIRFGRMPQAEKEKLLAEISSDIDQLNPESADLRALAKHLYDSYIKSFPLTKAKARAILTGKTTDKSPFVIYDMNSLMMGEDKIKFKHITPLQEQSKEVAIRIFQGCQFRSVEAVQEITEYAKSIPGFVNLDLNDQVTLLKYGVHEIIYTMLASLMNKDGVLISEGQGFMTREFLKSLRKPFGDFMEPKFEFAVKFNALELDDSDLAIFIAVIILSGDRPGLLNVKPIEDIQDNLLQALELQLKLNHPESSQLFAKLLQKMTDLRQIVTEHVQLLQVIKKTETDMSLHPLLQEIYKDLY
# UniProt P11473, sequence (P11473 whole entry, looked up): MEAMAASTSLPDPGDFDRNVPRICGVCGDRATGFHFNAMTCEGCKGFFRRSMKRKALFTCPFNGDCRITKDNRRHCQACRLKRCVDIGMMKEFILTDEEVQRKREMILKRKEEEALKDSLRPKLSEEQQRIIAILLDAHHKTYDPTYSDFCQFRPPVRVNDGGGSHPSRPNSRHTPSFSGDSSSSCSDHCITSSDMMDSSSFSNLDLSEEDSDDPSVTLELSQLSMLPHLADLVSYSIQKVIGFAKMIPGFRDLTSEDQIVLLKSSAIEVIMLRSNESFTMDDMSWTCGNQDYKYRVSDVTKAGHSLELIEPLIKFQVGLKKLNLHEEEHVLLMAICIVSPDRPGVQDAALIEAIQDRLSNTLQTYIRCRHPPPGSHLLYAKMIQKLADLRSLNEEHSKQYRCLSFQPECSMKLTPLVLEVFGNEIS
structure (smiles),measurement,setting,value
Cc1cccc(N)c1,"ratio activity, negative = inhibition",[1]; at 62.6 µM (top of the series),inactive: -2.11%
same,"ratio activity, negative = inhibition",[1]; at 81.1 µM (top of the series),inactive: -11.1%
same,"ratio activity, negative = inhibition",[1]; [17],inconclusive: -43.7% [inhibitor] [at 81.1 µM]
same,Potency,[2],"inconclusive: 98.3 nM [rising, full curve, poor fit]"
same,Potency,[3],inactive
same,Potency,[4]; [18],"inconclusive: 12.3 µM [falling, single point]"
CC(C)CCCCCOC(=O)c1ccccc1C(=O)OCCCCCC(C)C,Potency,[5],inactive
same,Potency,[6],inactive
same,Potency,[7],"inconclusive: 54300 nM [cytotoxic, partial curve, poor fit]"
COC(C)(C)C,Potency,[6],"inconclusive: 1690 nM [cytotoxic, full curve, poor fit]"
same,Potency,[7],inactive
Clc1c(Cl)c(Cl)c(Cl)c(Cl)c1Cl,activation,[4]; [18],inactive: -1.07% [at 6.95 µM]
Cc1ccc(N)c(C)c1,Potency,[8],inactive
same,Potency,[9],inactive
same,Potency,[3],"inconclusive: 1100 nM [cytotoxic, single point]"
same,Potency,[7],"inconclusive: 55100 nM [rising, partial curve, poor fit]"
O=C(NC(=O)c1c(F)cccc1F)Nc1ccc(Cl)cc1,"ratio activity, negative = inhibition",[1]; at 62.6 µM (top of the series),inactive: 11.7%
same,"ratio activity, negative = inhibition",[1]; [17],inconclusive: 11.5%
same,activation,[10]; activation: at 73.3 µM (top of the series) unless noted,inconclusive: -16.8%
same,activation,[10]; at 73.3 µM (top of the series),inactive: -3.87%
same,Potency,[9],"inconclusive: 34700 nM [fluorescent, single point]"
same,"ratio activity, negative = inhibition",[9],inconclusive: 5.38%
same,Potency,[11],inactive
same,Potency,[12],"inconclusive: 389 nM [fluorescent, full curve, poor fit]"
same,Potency,[13],"inconclusive: 2450 nM [fluorescent, full curve, poor fit]"
same,Potency,[14],inactive
same,Potency,[4]; [18],"inconclusive: 61.8 µM [activator, single point] and inconclusive: 61.7 µM"
CC(C)(CCl)C(=O)Cl,Potency,[5],"inconclusive: 61600 nM [activator, single point]"
same,Potency,[6],"inconclusive: 1950 nM [cytotoxic, full curve, poor fit]"
same,activation,[13],inconclusive: -22.1%
same,Potency,[3],"inconclusive: 15.5 nM [rising, full curve, poor fit]"
same,Potency,[7],"inconclusive: 61600 nM [rising, partial curve, poor fit]"
CCOc1cc(C=O)ccc1O,Potency,[15],inactive
same,Potency,[2],inactive
same,activation,[4]; [18],inconclusive: 7.49%
same,activation,[4]; at 61 µM (top of the series),inactive: 0.734%
C#CC(C)(C)NC(=O)c1cc(Cl)cc(Cl)c1,"activity change, negative = cytotoxicity",[16],inconclusive: 30.5%
same,activation,[4]; [18],inconclusive: 6.2%
same,activation,[4]; at 78.8 µM (top of the series),inactive: -0.0296%
